Measurements: the supplement of paper PMC5655136
Values come from read counts of a selection and are noisy.

Tested on: NB7
Assay: fold depletion of shRNA, plasmid library share / infected cells without Dox share (9 days) (ratio); higher = more depleted after infection (more toxic, leaky expression from a Tet-inducible vector; NB7 is a neuroblastoma line without caspase-8)
[1] = shRNA pool: CD95L ORF + CD95L 3'UTR + Venus libraries
[2] = shRNA pool: CD95 ORF + CD95 3'UTR + Venus libraries
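Further: shRNA barcodes quantified by deep sequencing of PCR amplicons from cellular DNA, counts expressed as percent of each subpool, ratio averaged over two biological duplicates.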

| Sequence | fold depletion of shRNA [1] | fold depletion of shRNA [2] |
| --- | --- | --- |
| GGTCGAGCTGGACGGCGACGT | 1.31 | 0.955 |
| GGTCTACATGAGGAACTCTAA | 1.51 |  |
| GGTCTTCTTACATGCATTTGA | 1.38 |  |
| GGTGAAACTAACAGATAAGCA | 1.6 |  |
| GGTGAAAGGAAAGCTAGGGAC |  | 2.03 |
| GGTGAACCGCATCGAGCTGAA | 0.589 | 0.75 |
| GGTGAAGAGAAAGGAAGTACA |  | 1.27 |
| GGTGAAGTTCGAGGGCGACAC |  | 2.3 |
| GGTGAGCAAGGGCGAGGAGCT | 1.38 | 1.33 |
| GGTGATGATGGAGGGGAAGAT | 1.37 |  |
| GGTGCCCATCCTGGTCGAGCT | 0.591 | 0.812 |
| GGTGCTCATCTTAATGGCCTA |  | 5.38 |
| GGTGGACAGCAGTGCCAGCTC | 1.13 |  |
| GGTGGCCTTGTGATCAATGAA | 0.485 |  |
| GGTGGCTTTGTCTTCTTCTTT |  | 0.545 |
| GGTGGGCCTTGCTACCTCAAG | 2.79 |  |
| GGTGGTGCCCATCCTGGTCGA | 0.676 | 1.94 |
| GGTGTCAATGAAGCCAAAATA |  | 5.79 |
| GGTGTCATATTATACAATATT |  | 0.715 |
| GGTGTGTGTGTGTGTGTGTGT | 0.756 |  |
| GGTGTTCTACACTCATCTTAG | 1.12 |  |
| GGTTCAAAATGTCTGTAGCTC | 1.36 |  |
| GGTTCTCATGAATCTCCAACT |  | 1.52 |
| GGTTCTGGTTGCCTTGGTAGG | 0.411 |  |
| GGTTGCATTTGGTCAAGATTT | 0.869 |  |

| Sequence | fold depletion of shRNA [1] | fold depletion of shRNA [2] |
| --- | --- | --- |
| GGTTGCCTTGGTAGGATTGGG | 0.863 |  |
| GGTTGTGACCTGAGGATTTAA | 0.337 |  |
| GGTTTTTTACTGGGTACATTT |  | 1.27 |
| GTAAAAGTACGTAATTAAATA |  | 1.07 |
| GTAAAATCATCATCTGGATTT |  | 1.17 |
| GTAAACCAAACTTTTTTTGTA |  | 0.754 |
| GTAAACGGCCACAAGTTCAGC | 2.83 | 2.23 |
| GTAAAGTATATGTATTTGAGT |  | 1.22 |
| GTAAATACTGCTTGGTTTTTT |  | 0.952 |
| GTAAATATATCACCACTATTG |  | 0.836 |
| GTAAATGTAAACTGTGAAGAT |  | 1.47 |
| GTAACTCTACTGTATGTGAAC |  | 0.986 |
| GTAAGAAGACATGAACCAAGT | 3.11 |  |
| GTAATAAAAAGTATATGTTAG | 0.329 |  |
| GTAATCAGTGTATGTTAGTAC |  | 1.51 |
| GTAATTAAATAATGTTTTTGG |  | 0.979 |
| GTAATTGGCATCAACTTCATG |  | 0.695 |
| GTACAAATGTCTATCCACAGG |  | 1.29 |
| GTACAACTACAACAGCCACAA | 5.78 | 2.51 |
| GTACACAGACAAAGCCCATTT |  | 1.54 |
| GTACAGAAAACATGCAGAAAG |  | 0.839 |
| GTACATATTAGGAAAATATGG | 1.44 |  |
| GTACATTTTATCATTTATTAG |  | 1.94 |
| GTACCCAAATAGGAGTGTATG |  | 2.68 |
| GTACGTAATTAAATAATGTTT |  | 0.866 |

| Sequence | fold depletion of shRNA [1] | fold depletion of shRNA [2] |
| --- | --- | --- |
| GTACTCTTGCAGAGAAAATTC |  | 0.93 |
| GTACTTTGTATATTCCAAAGT | 0.442 |  |
| GTAGATATTGTGAAGTACATA | 0.672 |  |
| GTAGATTGTGTGATGAAGGAC |  | 2.38 |
| GTAGATTTTTAATATCTCATG |  | 0.896 |
| GTAGGGGTGTGTGTGTGTGTG | 0.756 |  |
| GTAGTATGAATGTAATCAGTG |  | 1 |
| GTATAAGAAGGGTGGCCTTGT | 1.75 |  |
| GTATACTTCCGGGGTCAATCT | 2.68 |  |
| GTATATGCAATTAGTGTTTGA |  | 1.23 |
| GTATATGTATTTGAGTGCAGA |  | 1.99 |
| GTATATTCCAAAGTATACTTC | 0.384 |  |
| GTATCTGAGCTCTCTCTGGTC | 2.77 |  |
| GTATGAATGTAATCAGTGTAT |  | 1.19 |
| GTATGACACATTGATTAAAGA |  | 1 |
| GTATGACTAAAGAGAGAATGT | 0.499 |  |
| GTATGCAGAGGATGAAAGATT |  | 1.48 |
| GTATGCATTTTACTGGCTCAA |  | 0.932 |
| GTATGTGAACACTGTGACCCT |  | 3.04 |
| GTATGTTAGTACAAATGTCTA |  | 1.34 |
| GTATTAAATGTGAATTTTAAG |  | 3.02 |
| GTATTACTAGAGCTTTGCCAC |  | 2.68 |
| GTATTCAGTGAGGGTCTTCTT | 2.98 |  |
| GTATTTAGGCAGATTGAAAAG | 1.59 |  |
| GTATTTCCAGTGCAATTGTAG | 6.14 |  |

| Sequence | fold depletion of shRNA [1] | fold depletion of shRNA [2] |
| --- | --- | --- |
| GTATTTGAGTGCAGAATTTAA |  | 1.08 |
| GTCAACGTATCTGAGCTCTCT | 2.96 |  |
| GTCAAGATTTTGAATGCTTCC | 0.844 |  |
| GTCAAGTAAGAAGACATGAAC | 2.46 |  |
| GTCAAGTTAAAGGCTTTGTTC |  | 1.02 |
| GTCAATCTTGCAACAACCTGC | 1.11 |  |
| GTCAATGAAGCCAAAATAGAT |  | 1.45 |
| GTCAATGGGGATGAACCAGAC |  | 2.19 |
| GTCAATTTTGAGGAATCTCAG | 0.536 |  |
| GTCAGCTACTAATGATGTTTT | 2.31 |  |
| GTCATACCCCCAAGTTTCTAA |  | 2.02 |
| GTCATATTATACAATATTTCA |  | 0.755 |
| GTCATGAACCCATGTTTGCAA |  | 2.07 |
| GTCATGACACTAAGTCAAGTT |  | 1.25 |
| GTCCAAAAGTGTTAATGCCCA |  | 2.12 |
| GTCCAACCTCTGTGCCCAGAA | 3.2 |  |
| GTCCAACTCAAGGTCCATGCC | 4.06 |  |
| GTCCAAGACACAGCAGAACAG |  | 1.32 |
| GTCCACCCCCTGAAAAAAAGG | 14.4 |  |
| GTCCAGGAGCGCACCATCTTC | 0.898 | 0.797 |
| GTCCATGCCTCTGGAATGGGA | 8.83 |  |
| GTCCCATGTAAAACCTGCTAC |  | 6.66 |
| GTCCGCCATGCCCGAAGGCTA | 1.46 | 0.905 |
| GTCCGCCCTGAGCAAAGACCC | 0.524 | 3.99 |
| GTCCGGCGAGGGCGAGGGCGA | 0.339 | 0.869 |

| Sequence | fold depletion of shRNA [1] | fold depletion of shRNA [2] |
| --- | --- | --- |
| GTCCTGCTGGAGTTCGTGACC | 1.58 | 1.98 |
| GTCCTGCTTTCTGGAGTGAAG | 5.25 |  |
| GTCGAGCTGGACGGCGACGTA | 1.91 | 0.799 |
| GTCTACATGAGGAACTCTAAG | 1.08 |  |
| GTCTATATCACCGCCGACAAG | 2.44 | 2.07 |
| GTCTATCCACAGGCTAACCCC |  | 8.56 |
| GTCTCCTTGTGATGTTTTTCA | 2.14 |  |
| GTCTGTTGCTAGATTATCGTC |  | 1.52 |
| GTCTTCTTACATGCATTTGAG | 2.35 |  |
| GTCTTCTTCTTTTGCCAATTC |  | 2.61 |
| GTCTTTCAGATACATGGTTGT | 11 |  |
| GTGAAAAACAACAAATTCAGT |  | 0.887 |
| GTGAAACTAACAGATAAGCAA | 1.39 |  |
| GTGAAAGGAAAGCTAGGGACT |  | 0.524 |
| GTGAAATGAAAACATGTAATA | 1.16 |  |
| GTGAACACTGTGACCCTTGCA |  | 0.36 |
| GTGAACATGGAATCATCAAGG |  | 3.04 |
| GTGAACCGCATCGAGCTGAAG | 1.33 | 0.613 |
| GTGAAGAGAAAGGAAGTACAG |  | 2.47 |
| GTGAAGAGGGAGAAGCATGAA | 4.35 |  |
| GTGAAGATAGTTATAAACTGA |  | 1.15 |
| GTGAAGTACATATTAGGAAAA | 0.607 |  |
| GTGAAGTATAAGAAGGGTGGC | 0.941 |  |
| GTGAAGTTCGAGGGCGACACC | 1.17 | 0.725 |
| GTGAATTCACATAGAAAACAT |  | 1.11 |

| Sequence | fold depletion of shRNA [1] | fold depletion of shRNA [2] |
| --- | --- | --- |
| GTGAATTTTAAGAAATAATAT |  | 1.19 |
| GTGACATGTCATGAACCCATG |  | 1.34 |
| GTGACCACCCTGGGCTACGGC | 2.07 | 1.37 |
| GTGACCCTTGCACCAAATGTG |  | 0.667 |
| GTGACCGCCGCCGGGATCACT | 0.861 | 0.708 |
| GTGACCTGAGGATTTAAGGGA | 0.28 |  |
| GTGACTCAGAAAATTCAAACT |  | 2.37 |
| GTGACTGACATCAACTCCAAG |  | 2.19 |
| GTGAGCAAGGGCGAGGAGCTG | 1.06 | 0.523 |
| GTGAGGGTCTTCTTACATGCA | 0.239 |  |
| GTGATCAATGAAACTGGGCTG | 2.27 |  |
| GTGATGAAGGACATGGCTTAG |  | 2.18 |
| GTGATGATGGAGGGGAAGATG | 1.96 |  |
| GTGATGTTTTTCATGGTTCTG | 0.895 |  |
| GTGCAAAGAGGAAGGATCCAG |  | 2.38 |
| GTGCAATTGTAGGGGTGTGTG | 2.2 |  |
| GTGCAGAATTTAAATAAGGCT |  | 0.95 |
| GTGCAGCTCGCCGACCACTAC | 0.284 | 0.454 |
| GTGCATTTTTGTGAAATGAAA | 0.721 |  |
| GTGCCCATCCTGGTCGAGCTG |  | 2.11 |
| GTGCCCTGCCAAGAAGGGAAG |  | 1.17 |
| GTGCCCTGGCCCACCCTCGTG |  | 0.573 |
| GTGCCTGAGAGTATTTAGGCA | 2.04 |  |
